Source: the supplement of paper PMC4967469

Experiments:
[1] = compound: Nc1[nH]nc2nnc(-c3c(-c4ccccc4)nn4ccccc34)cc12 [FR-180204]; assay: Viability of human cancer cell lines after 72 h of drug (GDSC screen); settings: top dose 20 µM; top dose inferred
Experimental: (§1)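 Human cancer cell lines in 384-well plates, medium with 10% serum, drug for 72 h over a 256-fold dose range (nine 2-fold or five 4-fold steps up to the top dose). Adherent lines were fixed and stained with the nucleic acid dye Syto60, suspension lines read with resazurin; signal relative to control wells, capped at 0 and 100%. One two-parameter sigmoid per drug and line, fitted in a mixed model over all curves with the slope shared within a line.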

[2] = compound: O=C(/C=C/c1cccnc1)NCCCCC1CCN(C(=O)c2ccccc2)CC1 [FK866]; assay: as above; settings: top dose 1 µM; top dose inferred
Experimental: as §1

| Cell Line | AUC [1] | pIC50 [1] | AUC [2] | pIC50 [2] |
| --- | --- | --- | --- | --- |
| HTC-C3 (thyroid, adherent) | 0.947 | < 4.70 | 0.656 | 6.75 |
| HUTU-80 (digestive system, adherent) | 0.982 | < 4.70 | 0.991 | < 6.00 |
| HeLa (cervix, adherent) | 0.987 | < 4.70 | 0.191 | 8.10 |
| Hey (ovary, adherent) | 0.979 | < 4.70 | 0.032 | > 8.41 |
| Hs633T (fibrosarcoma, adherent) | 0.99 | < 4.70 | 0.362 | 7.55 |
| Hs683 (glioma, adherent) | 0.98 | < 4.70 | 0.986 | < 6.00 |
| Hs746T (stomach, adherent) | 0.981 | < 4.70 | 0.792 | 6.20 |
| Hs766T (pancreas, adherent) | 0.984 | < 4.70 | 0.872 | < 6.00 |
| Hs939-T (melanoma, adherent) | 0.96 | < 4.70 | 0.851 | 6.05 |
| Hs940-T (melanoma, adherent) | 0.98 | < 4.70 | 0.797 | 6.23 |
| Hs-445 (Hodgkin lymphoma, suspension) | 0.98 | < 4.70 | 0.988 | < 6.00 |
| Hs-578-T (breast, adherent) | 0.987 | < 4.70 | 0.982 | < 6.00 |
| HuCCT1 (biliary tract, adherent) | 0.95 | < 4.70 | 0.626 | 6.84 |
| HuH-7 (liver, adherent) | 0.987 | < 4.70 | 0.986 | < 6.00 |
| HuO9 (osteosarcoma, adherent) | 0.984 | < 4.70 | 0.977 | < 6.00 |
| HuO-3N1 (osteosarcoma, adherent) | 0.972 | < 4.70 | 0.888 | < 6.00 |
| HuP-T3 (pancreas, adherent) | 0.93 | < 4.70 | 0.818 | 6.14 |
| IA-LM (large cell lung carcinoma, adherent) | 0.971 | < 4.70 | 0.923 | < 6.00 |
| IGR-37 (melanoma, adherent) | 0.953 | < 4.70 | 0.493 | 7.22 |
| IHH-4 (thyroid, semi-adherent) | 0.988 | < 4.70 | 0.024 | > 8.41 |
| IM-95 (stomach, adherent) | 0.948 | < 4.70 | 0.633 | 6.83 |
| IMR-5 (neuroblastoma, adherent) | 0.991 | < 4.70 | 0.02 | > 8.41 |
| IPC-298 (melanoma, adherent) | 0.981 | < 4.70 | 0.472 | 7.28 |
| IST-MEL1 (melanoma, adherent) | 0.981 | < 4.70 | 0.364 | 7.61 |
| IST-MES1 (mesothelioma, adherent) | 0.974 | < 4.70 | 0.932 | < 6.00 |

| Cell Line | AUC [1] | pIC50 [1] | AUC [2] | pIC50 [2] |
| --- | --- | --- | --- | --- |
| IST-SL1 (small cell lung carcinoma, semi-adherent) | 0.982 | < 4.70 | 0.086 | > 8.41 |
| J82 (bladder, adherent) | 0.988 | < 4.70 | 0.949 | < 6.00 |
| JAR (urogenital system, adherent) | 0.984 | < 4.70 | 0.373 | 7.55 |
| JEG-3 (urogenital system, adherent) | 0.99 | < 4.70 | 0.115 | 8.37 |
| JHH-1 (liver, adherent) | 0.908 | < 4.70 | 0.983 | < 6.00 |
| JHH-2 (liver, adherent) | 0.971 | < 4.70 | 0.946 | < 6.00 |
| JHH-4 (liver, adherent) | 0.94 | < 4.70 | 0.771 | 6.42 |
| JHH-6 (liver, adherent) | 0.979 | < 4.70 | 0.831 | 6.19 |
| JHH-7 (liver, adherent) | 0.985 | < 4.70 | 0.098 | > 8.41 |
| JHOS-2 (ovary, adherent) | 0.927 | < 4.70 | 0.426 | 7.42 |
| JHOS-3 (ovary, adherent) | 0.933 | < 4.70 | 0.951 | < 6.00 |
| JHU-022 (head and neck, adherent) | 0.982 | < 4.70 | 0.462 | 7.32 |
| JIMT-1 (breast, adherent) | 0.982 | < 4.70 | 0.342 | 7.66 |
| JJN-3 (haematopoietic neoplasm, suspension) | 0.985 | < 4.70 | 0.053 | > 8.41 |
| JM1 (B-cell lymphoma, suspension) | 0.985 | < 4.70 | 0.022 | > 8.41 |
| JURL-MK1 (chronic myeloid leukaemia, suspension) | 0.882 | < 4.70 | 0.049 | > 8.41 |
| JVM-2 (lymphoid neoplasm, suspension) | 0.974 | < 4.70 | 0.065 | > 8.41 |
| JVM-3 (lymphoid neoplasm, suspension) | 0.967 | < 4.70 | 0.118 | > 8.41 |
| JiyoyeP-2003 (Burkitt lymphoma, suspension) | 0.988 | < 4.70 | 0.231 | 7.93 |
| K2 (melanoma, adherent) | 0.923 | < 4.70 | 0.835 | 6.02 |
| K5 (thyroid, adherent) | 0.954 | < 4.70 | 0.356 | 7.59 |
| K-562 (chronic myeloid leukaemia, suspension) | 0.942 | < 4.70 | 0.04 | > 8.41 |
| KALS-1 (glioma, adherent) | 0.974 | < 4.70 | 0.714 | 6.49 |
| KARPAS-45 (lymphoblastic leukaemia, suspension) | 0.95 | < 4.70 | 0.958 | < 6.00 |

pIC50: −log10 of the molar value. IC50 is the fitted dose that halves viability relative to control wells, and lower means more sensitive; fits outside the tested doses are given as limits. For AUC the same curve is integrated over the 256-fold range of doses and scaled to a fraction; values near 1 show little effect. Any top dose called inferred was calculated from the reported fits.
